Over roughly 33,000 sequences, “E-score (-0.5 to 0.5)” has its median near -0.01; the highest 2% begin near 0.26. This is one part of the list.
Molecular target: Ste12 (UniProt P13574)
Assay: PBM E-score (8-mer binding enrichment) (E-score (-0.5 to 0.5)); higher = stronger / more preferred TF binding; most listed sequences are background and not binding sites
Conditions: protein concentration: 200 nM; construct: GST-DNA-binding domain
Procedure: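 Universal 'all 10-mer' protein binding microarrays (Agilent AMADID 015681) probed with GST-tagged S. cerevisiae TFs (full-length or DBD) made by in vitro transcription/translation (PURExpress), about 100-200 nM. Bound TF was detected with fluorescent anti-GST. Each ungapped 8-mer (which stands for itself and its reverse complement) is scored by the PBM enrichment score (E-score), a modified Wilcoxon-Mann-Whitney statistic from -0.5 to +0.5, computed with the Universal PBM Analysis Suite. Scale: above 0.35 generally sequence-specific binding.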

Sequence	PBM E-score
CTCGTGCC	-0.244
AGGCAATG	-0.152
ATTCATAA	0.205
CCGCACAG	-0.00432
CGGCAAGC	-0.0423
AGGGTGAC	-0.0433
GACCTTAA	-0.0226
CTATATCC	-0.0647
ATATCCTC	0.0379
CGACATTC	0.00586
AGAGTACT	-0.193
CAACTTGG	-0.0701
AGGGTGAG	-0.127
ATGATACG	0.25
CTCTGGCC	0.0202
GTGACCAA	0.175
TGTACCAA	-0.0484
ACCGGCCG	-0.0444
GAACCCAC	-0.0413
CATTTCTA	0.189
AGAGTTGA	-0.0346
AGATTTCG	0.0485
GACGGGAA	-0.0951
GAAGTCCC	-0.195
AAACACGT	0.18

Sequence	PBM E-score
AGGTGGAA	0.00669
CCTATAAG	0.0662
ACAAGTCG	-0.174
ACAGATCC	0.111
AGTTTAGA	0.175
AGGATACC	-0.182
AGGCACTA	-0.0882
ATACGTCC	-0.16
AGCTAGCG	-0.0094
AATCAATT	0.176
AATTCTAG	0.253
CAAGCAAC	-0.158
ACCGAAGA	-0.0162
CTCGGCAA	0.0666
GTAACGTA	0.026
CTTTATCC	-0.0182
ATTGGCTA	-0.198
ACAGCGCA	-0.0296
ATCCGGCG	-0.0194
ATACGGAT	-0.116
AAAGAAGC	0.0592
CCTCCTTC	-0.0212
CCAAGCGC	-0.00357
AAATCCAT	0.153
AGCTACAG	-0.143

Sequence	PBM E-score
ATGTGAAT	0.171
AGTTTACA	0.125
GGTAATCA	-0.0052
CTTGCGTC	-0.164
TAAAAGGA	0.0696
CCGACTCC	0.0532
GAGCTTGC	-0.225
ACAATTGG	-0.226
AACATTTC	0.0303
GACGTGGA	-0.21
AAGTAGCC	0.0303
AGAGAGAC	-0.105
GCGAATTA	0.0563
TCGCGGAA	-0.0362
GAATCTGC	0.0541
GGACTATA	0.0221
AGGTACCG	0.0438
CGAATTGC	-0.0272
CTACCCCC	-0.14
GAGCCGCA	-0.112
CCGACCGA	-0.131
ATTAGCAC	0.0722
GGACTGCC	-0.119
CAGCACTC	-0.0353
ATCGGGTC	0.0807

Sequence	PBM E-score
CCGGGAAC	-0.015
ATTCTTAA	0.155
CCCTTGCC	-0.0578
CGTCTTTA	0.00222
GATTTTGC	-0.044
GCGACACC	-0.0458
ACCCCTTC	-0.0377
CATCGCCG	-0.0762
CCACCGGC	-0.2
GCCATACC	-0.112
CGGACTAG	-0.0897
CCCTTTTA	-0.119
AGGATAGG	0.00531
GAGTTATA	0.0966
GGCGAGGA	-0.178
TCGTCAGA	-0.157
GCTATCCA	0.013
GCGGCAAC	-0.0599
ACATGCGA	-0.0184
ACTGATCT	-0.0332
GAGGACAC	-0.18
ACCTCCAC	-0.0491
CGTTAGAG	-0.0564
ATGTGGTA	0.0215
GCGAGAGA	-0.0352

Sequence	PBM E-score
ATCAGGGG	-0.128
AGAAGGGC	-0.223
GGCACATA	0.0754
GCGCAATA	-0.0201
CAGCGAAC	0.0308
GGAGGCAA	-0.187
AGGTCGAG	-0.118
GTGTCCCA	0.115
ATCGGCTG	-0.136
CGTGGACC	-0.285
AGTTTTTC	0.162
AACGCAGA	-0.0953
AGAGATAA	0.164
CACACACG	0.13
CGTTGCCA	-0.0755
GGGCTGAA	0.0188
ATCGATTC	-0.0473
CCATCAGG	-0.0848
ATATAAGG	0.0591
TATCACGA	0.0822
GTAAGAAC	-0.0389
CTCGTAAC	0.113
AATTTCAA	0.106
ACAAACCT	-0.111
CCGCTAGG	-0.207

Sequence	PBM E-score
CACCACAA	0.0252
GTATGCTA	0.0557
ACGTCGCA	0.0801
ACTGGGCA	-0.199
CGGGCACG	-0.0656
AACCTTCT	-0.183
GTAATATA	0.149
CGGATCAA	0.144
CTCTCATC	-0.19
CCCGGATA	-0.0895
CGTCCACA	-0.0571
CCGCCGCA	0.119
CAGGAGGG	0.0176
GTCCCATA	-0.0447
ATGATTTA	0.255
ACACCGAC	0.0479
GGCAAATA	0.162
CATCGGGA	-0.0614
AGCGGAGC	-0.159
GGGCGTTA	0.15
GTCCGACA	-0.00141
TAGTCTGA	-0.102
CGGACACC	-0.184
CGTAGAGC	-0.205
CCATTCGA	-0.0588

Sequence	PBM E-score
GACGGTGA	0.0426
GGAACACC	-0.0232
AGAACTAA	0.0814
ATCGACGG	0.0442
GACCCTCC	-0.0204
TCAACGCA	0.0262
GCAACCAA	0.112
CTTCCCAC	0.121
TAAGACAA	0.209
GGCTCTAC	-0.076
ACGGGTTC	-0.162
ACCCTAAT	-0.268
CATAATTA	0.204
CTCCGAGC	0.153
AAGATGTA	0.0402
AGCGGGTA	-0.107
CCGAAATC	0.0152
CGTCTTAC	-0.0338
CCCTTACG	-0.322
TGTGCAAA	0.00039
CATATCTA	0.176
GGCTCAAC	-0.238
TGTTGGAA	0.113
CATGCCCC	-0.0674
AGACTTGA	0.0655

Sequence	PBM E-score
GCATGCGC	-0.164
AGTACAAT	-0.0129
AACACGCA	-0.0376
CGTCTCCC	-0.0248
GAGCGTGC	-0.0127
ATCGCAGG	-0.0915
AGCAGATC	0.0023
ATATTTGC	0.101
CTCGTAGC	0.00986
ATCTGTTC	0.0998
CACTTTAG	0.0171
ATTGAGAC	0.122
GGATGTAA	0.125
GGATTCTA	-0.117
GGGCAGAA	0.131
GCAGAGGC	-0.185
AAATAACG	0.21
ATCGCCTG	-0.104
CGGGCGAG	0.127
AGACGCAA	0.0173
GCGCAAAC	0.046
GCTGCAAC	0.0712
ATGTGTTC	0.0256
AGGGCAAA	0.00224
CATGAAAG	-0.00226

Sequence	PBM E-score
CATACGGA	-0.084
CCGGGCGC	-0.103
AGCGAGGA	-0.105
CAACTACC	0.0836
CGAGCGCA	0.0982
TAGACGCA	-0.146
ACTTAAAC	0.145
ATGCCCGC	-0.0459
CACATGAG	-0.0681
TCCGGAAA	0.137
CGCACCCG	-0.0241
TCGACGAA	-0.21
GTTAGGAA	0.117
GCCAGCAC	-0.106
ACTACAGC	-0.0318
CTGTCCAC	-0.0152
AAATATAA	0.224
CCACGAGG	-0.177
AGTGTAAT	0.0365
CACTAAAC	0.0968
AAACGGCG	0.149
ACAATTTG	0.0452
AAACTGTA	0.135
GGTGGGGA	0.318
AAACCGAG	0.114

Sequence	PBM E-score
ATGACACG	0.101
AGCGTCGC	-0.158
AGGACGGA	-0.085
GCATAATA	0.197
AAGCAGGG	-0.153
CCGGGCGA	0.0118
CGGATATC	0.0116
ATAGTCGA	0.0834
ACACTAGA	0.0537
AGCATAGG	-0.058
CATCTTAC	0.0134
ACAACTAT	0.187
CCCATGCA	0.00631
TCTATAAA	0.201
GACTAGCC	-0.182
ACCGCGAG	-0.151
TTAGTAAA	0.186
CGGAACCA	0.00676
CGGCCCAA	0.0104
ATTGATGA	0.0256
AGGGGATG	0.0956
AAGTAGGC	0.0462
AGATGCCG	-0.0209
ACGATGGA	0.00249
CGTCTTGC	-0.0115

Sequence	PBM E-score
GATTTAAA	0.113
AATAAGCT	0.0505
ACCACCAT	0.0431
GCTTGTTA	0.0415
GCCCTTTA	-0.182
AAGCTAGG	-0.0794
CCCCAGTC	-0.176
CAGCAATA	-0.0432
GCTATAGC	-0.0419
CAGGCCCC	-0.0848
CCAATATA	-0.103
CATTCCGG	0.0164
GCCATTAC	0.181
AGGGCTTC	-0.0834
ATCAAGAT	0.0655
GGCCGATA	-0.079
ACCTATCG	-0.0147
TTCACGAA	-0.046
ATGGCTTA	0.0392
TACTTTAA	0.251
ACAAGGGG	-0.092
AACATCTG	-0.155
CTGTGACA	0.102
ATAGACGC	0.0365
CCGCTGCA	-0.0719

Sequence	PBM E-score
ATCAGGAA	0.02
CTGCGAAG	-0.277
AACAGAGC	0.0874
AGCCGAGA	-0.102
GGCACCCC	-0.0957
CAAGGAGG	-0.075
CTGTCTTA	-0.132
AGACACGG	-0.132
CGACTAGC	-0.0587
ATGCCCCA	-0.105
AGAATCCG	-0.1
AATCTTCT	0.0766
TCGGGAGA	-0.151
ACGGTGTG	-0.171
CCGAATAA	0.133
CCACAAAG	0.0762
ACCCACAT	-0.0368
GTACGCTA	-0.0588
ACAGAAGA	-0.0268
ACATTTTG	0.0789
CGCGCAAG	0.0503
TCCTCAGA	-0.0776
CTAAGTTA	0.111
AAGATCAT	-0.13
CCTCTGAC	-0.0436

Sequence	PBM E-score
CGAGCCAC	-0.143
CAACAACC	0.0311
GTACGCAC	-0.147
GAGTCCAA	-0.00274
GGTACACC	-0.216
AATAGAAT	0.0388
ATCACTAG	-0.207
CCATCGTC	-0.0845
CACTGGTA	-0.00285
AATGTACT	0.137
CTAGTCCC	-0.18
CAACAGAC	-0.018
TGACGGCA	0.0373
CAGAAAAC	0.133
GTCAACAC	0.0424
ACGGCTCG	-0.0221
CAGCTGTA	-0.11
CACCGGTA	0.0542
TATTCGAA	0.0527
ACTGTCAA	-0.0201
ATAGAGCG	-0.105
CTTGAGTC	-0.136
ATGGTGCA	-0.105
CTTACATC	0.093
TACCGTGA	-0.00059

Sequence	PBM E-score
GAGACGGA	-0.0823
AATTGCCC	0.0476
CTGACTTA	0.0671
ACTTCTCT	0.0703
AGCAGGCT	-0.266
CCAGAACG	0.113
ACCGGTCA	0.0217
ATCGCCCG	-0.112
ACAACGTC	-0.135
ATGCAACG	0.141
AGGTATGA	0.0451
ATGATAAC	0.138
GGCTTCCA	-0.25
GATGAGCC	-0.203
CACGGGTC	-0.141
CGCCCCTC	0.351
GGATTCCA	0.107
GACGGTAC	-0.0808
ATCACATA	-0.0478

From the supplement of paper PMC3334620
